From the BET-seq Pho4 binding data (Le et al. 2018)
The list shows a part of the results. These are noisy estimates, calculated here from bound and input reads.

The sequences below were run against T1, Pho4 (S. cerevisiae) (UniProt P07270) (assay: relative binding free energy (BET-seq); higher = weaker binding). Conditions: reference: library average.
T1 sequence: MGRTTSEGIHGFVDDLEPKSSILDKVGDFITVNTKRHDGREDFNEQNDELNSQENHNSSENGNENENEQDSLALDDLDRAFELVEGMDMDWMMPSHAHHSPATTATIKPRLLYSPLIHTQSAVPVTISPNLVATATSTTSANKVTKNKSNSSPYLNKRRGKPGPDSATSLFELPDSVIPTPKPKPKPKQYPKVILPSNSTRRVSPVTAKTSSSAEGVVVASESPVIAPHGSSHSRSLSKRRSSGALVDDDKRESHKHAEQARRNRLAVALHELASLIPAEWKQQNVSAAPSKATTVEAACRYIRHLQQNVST

Row | Sequence | relative binding free energy [kcal/mol]
1 | TGTGGCACGTGGTAGC | -0.09
2 | TGGCCCACGTGATGGT | 0
3 | TTAATCACGTGTGTTA | 0.11
4 | GGTTCCACGTGAGGCG | 0.27
5 | GCGGTCACGTGGCGGT | 0.05
6 | GGTATCACGTGTTCTG | 0.29
7 | CGTTGCACGTGGTTAA | 0.03
8 | CGTTACACGTGCGTGG | 0.18
9 | AGCTGCACGTGGGCGT | -0.18
10 | AAACTCACGTGTGGGT | 0.26
11 | GTCCGCACGTGTGTGA | 0.12
12 | TCGGGCACGTGGGAGG | -0.11
13 | TTTATCACGTGGGGTT | 0.06
14 | TTAGACACGTGTAGGC | 0.03
15 | TTGGACACGTGGCATA | 0.11
16 | TTCTTCACGTGGTGGA | 0.14
17 | GTATTCACGTGGTGAT | 0.18
18 | AGTGGCACGTGATTGA | -0.02
19 | GTCGGCACGTGGCTTT | 0.02
20 | TGGCTCACGTGAGGTC | 0.3
21 | AAATTCACGTGGTGGA | 0.3
22 | CGTTGCACGTGTCGGA | 0.11
23 | GATTGCACGTGATGGC | 0.16
24 | CGTAGCACGTGTTGTG | -0.22
25 | AATGACACGTGGTTGG | -0.15

Row | Sequence | relative binding free energy [kcal/mol]
26 | TTAAACACGTGGAATG | -0.02
27 | TTGGGCACGTGGGGTT | -0.11
28 | TGCGACACGTGGCGTT | 0.02
29 | AGATTCACGTGGGAGG | 0.16
30 | ATTTACACGTGTAGGC | 0.13
31 | GGCCTCACGTGGGGGT | 0.02
32 | AATTTCACGTGACATG | 0.51
33 | AAGTGCACGTGGAGGA | -0.19
34 | AGGGTCACGTGCTGAT | 0.07
35 | GGGGGCACGTGCCTAG | -0.18
36 | GGGCTCACGTGTAGGG | 0.07
37 | GGCAGCACGTGGGGGA | -0.24
38 | TATTACACGTGTGAGC | 0.14
39 | TACATCACGTGGTAGG | 0
40 | ATCGTCACGTGGGGTC | 0.05
41 | AAAGTCACGTGGTACG | 0.17
42 | TGGAACACGTGAATAT | 0.33
43 | GGGGACACGTGTTGCA | -0.01
44 | CAAGTCACGTGGGAGT | 0.05
45 | GACAGCACGTGAGAGG | 0.47
46 | CTGGTCACGTGGTGCT | -0.03
47 | ATGCTCACGTGAAATG | 0.37
48 | AATGGCACGTGGTATT | -0.11
49 | GTTGACACGTGGTAGC | -0.02
50 | CTAGTCACGTGTGGGT | 0.11

Row | Sequence | relative binding free energy [kcal/mol]
51 | TGGGACACGTGATACT | 0.18
52 | TGGGGCACGTGGGACT | -0.29
53 | GTTTACACGTGGTCTT | 0.09
54 | TGTTCCACGTGAGGTA | 0.17
55 | TCGTGCACGTGGAGGC | -0.07
56 | GTTTGCACGTGATTAA | 0.12
57 | GTTATCACGTGAGGAT | 0.42
58 | TGTAGCACGTGTTTGA | -0.09
59 | GAATACACGTGGGCGG | -0.09
60 | TAGGCCACGTGGGTGT | -0.35
61 | TAGCTCACGTGTCTGT | 0.23
62 | ACTGACACGTGGTTTG | -0.07
63 | AATGACACGTGGAGGT | 0.05
64 | TCGTACACGTGTGGTT | 0.17
65 | TTCGGCACGTGTACGT | 0
66 | GGTTACACGTGCATTG | 0.1
67 | GGTGGCACGTGCGGCG | 0.02
68 | GTTTTCACGTGGTTGC | 0.27
69 | GTATGCACGTGTTTTC | 0.05
70 | TTTTCCACGTGTGGGC | 0.08
71 | AAATTCACGTGGGGCT | 0.05
72 | GTTTCCACGTGATAGG | 0.18
73 | ATTGACACGTGGGGCA | -0.25
